Laboratory results taken from paper PMC5779226.
These are yes or no findings as the source states them, for the method shown. In cells and extracts the contact can be indirect. Some results given as binding are weak or reduced against the parent protein; the word gives no strength. For some assays here: Sequences can lack the tags named with a protein.

Protein sequences, listed by entry. Tags and fused reporters are not part of them.
UniProt P21187: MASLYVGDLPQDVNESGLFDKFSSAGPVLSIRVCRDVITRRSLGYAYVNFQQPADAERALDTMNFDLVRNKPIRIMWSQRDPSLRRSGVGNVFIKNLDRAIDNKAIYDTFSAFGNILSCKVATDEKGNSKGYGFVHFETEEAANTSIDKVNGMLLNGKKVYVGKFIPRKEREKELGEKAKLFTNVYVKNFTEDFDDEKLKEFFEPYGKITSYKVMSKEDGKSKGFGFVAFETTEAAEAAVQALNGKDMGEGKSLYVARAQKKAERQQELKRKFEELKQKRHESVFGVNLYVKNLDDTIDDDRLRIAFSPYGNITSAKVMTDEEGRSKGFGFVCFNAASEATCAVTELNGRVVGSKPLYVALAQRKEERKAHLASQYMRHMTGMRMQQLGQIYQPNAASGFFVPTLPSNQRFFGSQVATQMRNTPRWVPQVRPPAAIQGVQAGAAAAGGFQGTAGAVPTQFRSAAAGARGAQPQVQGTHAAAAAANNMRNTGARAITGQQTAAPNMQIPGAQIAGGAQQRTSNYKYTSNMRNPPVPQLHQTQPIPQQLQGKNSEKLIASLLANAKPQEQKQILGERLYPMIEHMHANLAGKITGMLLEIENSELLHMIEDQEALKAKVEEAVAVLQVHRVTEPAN

T1: eGFP-ME31B (transfected in S2 cells) (Drosophila) (UniProt P23128)
T1 sequence: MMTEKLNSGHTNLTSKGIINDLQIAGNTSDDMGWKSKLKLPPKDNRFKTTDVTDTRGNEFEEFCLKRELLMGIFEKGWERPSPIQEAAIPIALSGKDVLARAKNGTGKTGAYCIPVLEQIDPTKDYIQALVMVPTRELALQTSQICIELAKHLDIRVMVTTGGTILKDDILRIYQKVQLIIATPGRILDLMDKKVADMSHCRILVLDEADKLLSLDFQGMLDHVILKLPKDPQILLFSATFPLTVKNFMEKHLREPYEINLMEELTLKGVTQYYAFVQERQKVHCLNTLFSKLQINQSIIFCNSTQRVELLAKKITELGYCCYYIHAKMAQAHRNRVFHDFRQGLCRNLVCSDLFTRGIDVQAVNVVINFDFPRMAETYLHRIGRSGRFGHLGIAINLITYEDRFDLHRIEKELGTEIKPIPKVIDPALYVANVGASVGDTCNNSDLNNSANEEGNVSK

T2: eIF4E (D. melanogaster (endogenous in S2 cells and embryos)) (UniProt P48598)
T2 sequence: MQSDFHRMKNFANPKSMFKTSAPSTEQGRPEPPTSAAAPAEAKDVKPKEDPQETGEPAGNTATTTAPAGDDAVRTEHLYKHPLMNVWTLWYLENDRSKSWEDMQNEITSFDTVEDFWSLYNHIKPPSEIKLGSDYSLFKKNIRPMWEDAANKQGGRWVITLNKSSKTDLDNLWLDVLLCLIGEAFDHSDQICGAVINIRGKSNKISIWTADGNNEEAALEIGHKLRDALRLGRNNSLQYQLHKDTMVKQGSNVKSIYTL

T3: eGFP-ME31B (trap line embryos) (D. melanogaster (trap line embryos)) (UniProt P23128)
T3 sequence: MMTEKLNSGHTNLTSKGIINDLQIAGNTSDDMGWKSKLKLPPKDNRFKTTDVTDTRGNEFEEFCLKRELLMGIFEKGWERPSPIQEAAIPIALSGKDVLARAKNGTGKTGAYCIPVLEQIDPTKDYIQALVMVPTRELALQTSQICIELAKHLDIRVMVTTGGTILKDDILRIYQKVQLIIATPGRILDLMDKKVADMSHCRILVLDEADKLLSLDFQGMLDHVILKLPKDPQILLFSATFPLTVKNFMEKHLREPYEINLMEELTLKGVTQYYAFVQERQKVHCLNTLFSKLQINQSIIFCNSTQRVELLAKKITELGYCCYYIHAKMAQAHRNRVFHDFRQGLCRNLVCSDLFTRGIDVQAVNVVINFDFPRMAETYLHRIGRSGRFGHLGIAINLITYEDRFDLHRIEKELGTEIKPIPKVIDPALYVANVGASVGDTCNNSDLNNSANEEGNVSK


Tests used:
[1] = target: T1, eGFP-ME31B (transfected in S2 cells) (Drosophila); experiment: co-IP; S2 cells transfected with eGFP-ME31B (control FLAG-eGFP), anti-GFP antibodies on protein G beads; western blot
[2] = target: T2, eIF4E (D. melanogaster (endogenous in S2 cells and embryos)); experiment: pull-down; 0-1 hr embryo lysate on m7GDP-conjugated agarose beads (holds eIF4E by its cap analog), blank agarose beads as control, 3 hr at 4°C; western blot
[3] = target: T2, eIF4E (D. melanogaster (endogenous in S2 cells and embryos)); experiment: pull-down; S2 cell lysate on m7GDP-conjugated agarose beads (holds eIF4E by its cap analog), blank agarose beads as control, 3 hr at 4°C; western blot
[4] = target: PABP (D. melanogaster (endogenous in S2 cells and embryos)) (UniProt P21187); experiment: co-IP; wild-type embryo extracts from 2-3 hr onwards (to 4-5 hr), anti-PABP Fab (control C1); western blot
[5] = target: PABP (D. melanogaster (endogenous in S2 cells and embryos)) (UniProt P21187); experiment: co-IP; 1-2 hr wild-type embryo extracts, anti-PABP Fab (control C1); western blot
[6] = target: PABP (D. melanogaster (endogenous in S2 cells and embryos)) (UniProt P21187); experiment: co-IP; 0-1 hr embryo extracts, anti-PABP or anti-eIF4G Fabs (control C1) on anti-FLAG beads, 2-3 hr at 4°C, six washes; western blot; also with or without RNase A on the beads
[7] = target: PABP (D. melanogaster (endogenous in S2 cells and embryos)) (UniProt P21187); experiment: co-IP; S2 cell extracts, anti-PABP or anti-eIF4G Fabs (control C1) on anti-FLAG beads, 2-3 hr at 4°C, six washes; western blot
[8] = target: PABP (D. melanogaster (endogenous in S2 cells and embryos)) (UniProt P21187); experiment: co-IP; png^50 embryo extracts at 0-1, 2-3 and 4-5 hr, anti-PABP Fab (control C1); western blot
[9] = target: T3, eGFP-ME31B (trap line embryos) (D. melanogaster (trap line embryos)); experiment: co-IP; 0-1 hr eGFP-ME31B trap line embryo extracts, anti-GFP antibodies (control rabbit IgG) on protein G beads; western blot; also with or without RNase A on the beads

Molecule	binding [1]	binding [2]	binding [3]	binding [4]	binding [5]	binding [6]	binding [7]	binding [8]	binding [9]
PABP (from UniProt P21187 1-634)	no binding	binds	binds	–	–	–	–	–	–
eIF4E (protein, UniProt P48598 1-259) MQSDFHRMKNFANPKSMFKTSAPSTEQGRPEPPTSAAAPAEAKDVKPKEDPQETGEPAGNTATTTAPAGDDAVRTEHLYKHPLMNVWTLWYLENDRSKSWEDMQNEITSFDTVEDFWSLYNHIKPPSEIKLGSDYSLFKKNIRPMWEDAANKQGGRWVITLNKSSKTDLDNLWLDVLLCLIGEAFDHSDQICGAVINIRGKSNKISIWTADGNNEEAALEIGHKLRDALRLGRNNSLQYQLHKDTMVKQGSNVKSIYTL	–	–	–	binds	binds	binds	binds	–	–
Cup (protein, UniProt Q9VMA3 1-1117) MQMAEAEQENGAGALKIATNAGATDRPAHQQLPLPVEDQQDEVLTPAEKGKFEYPPPPPPPTPVQAPLATKATALNASQEHDDDEANSEKWEDPCAPPPPPPLPTSAFLATGLGYLKLPAFKLKDALEKAITKLEANKRTLKASPESSRSIKNKNVVALEMLPRRSNPETIGDGSMLASTSTAVMLQTKKPAVIVEMERRCKIINLLAKQNQILESISGEAIPMHGPSKHLHEDEGLTLQVLSARASTPYTQPSSMLSCTAVSCDLEHDSPRKQVASKEAVPEQQSSQVQQKRPPSTGIHKPGSLRAPKAVRPTTAPVVSSKPVKSYTRSRLMDIRNGMFNALMHRSKESFVMPRIATCDDIELEGRLRRMNIWRTSDGTRFRTRSTTANLNMNNNNNNECMPAFFKNKNKPNLISDESIIQSQPPQPQTEFQDPAIVNQRRIGSGRLNHSKWGYNDEDYHSYHNGKSQHMEEVNSKNSKNMTVLQFFDNGEISSQPQRRPNTPVMGMSINRSENDTLHSNESSEDLSRANENYVKRVMSGFLVVSKPKSRDVEDRHHRRYRNQNEEPEWFSCGPTSRLDTIELCGFDEDEEKMLKEGNKNHGLGETERETSKQKMDHKYKWTHAEPMGRSKYMPKHDTNNNHNVENMNNVMATEHQQQKEEKRPGSGRSFQFDKFNQSQQNYESSSYVNHQQPPQTQPQQMQQQSNTNTNNSKFMSFFANEGNSSSSSLNEFFKQAINQGHGNNPEQPKSLGHIGQMPSVDQLEAKWRRNSLNNVGETANKQTDNFQKLIGSLSSAKPQSQAVGYDAISNFIMQQQQYQQQQQKQHLIIQQQQQHTAFLASLQLKAILGRADTQLLLLRLTKGEISKHGLLVQLANPRLTDMDREAITAVLQFTNTQQQQQQHKQQLDMLSSTVIASQLQNLHNLAIVQQTLAARQQPQHNPQTQAPHQLSQEDLQAHANVIMRNAVMKRKIEEQTSKLINGGAKHQAQQQYLNRGQQRQARPDANSNALLHALISGGGNNHASGYPMNGQPQKHHSNLRFGDNQNFQSFESNQPHFATQYKQQYQQSQQQHPHQQPQQLNSLHQNNAGAVNSFNKAQMQAQSAISMLPNSGDEFH	–	binds	–	no binding (condition: embryos from 2-3 hr onwards)	binds weakly	binds	–	binds	binds
Enhancer of decapping 3 (EDC3) (protein, UniProt Q9VVI2 1-680) MGPTDQDWIGCAVSIACDEVLGVFQGLIKQISAEEITIVRAFRNGVPLRKQNAEVVLKCTDIRSIDLIEPAKQDLDGHTAPPPVVNKPTPVKLPHFSNILGKQQQLQLQQQQQQLQLQQQQKQQFQEQEREQDLPSTPRSRANDNGRVAAGGASSSSGPRGNFNSALSDKMHQLKLIETNGSNGTLRTPQTSRASSAQQQPQISTTPNSVAAFFGNMIPPKVEVKLGSYVSNTRESYCSSSGDSGEATGLSLGSSKPIDIVSNGDGFYKQTAASSYGNTNGNVRRNGNANNNGNGTGNGSYTNGNGNGNGKNKRNRVRRESSMRQQQVQLTFGSEADDPLIHEDFDFEGNLALFDKQAIWDDIESTTQKPDVVRHIVNNHHHKPEQKYRHDENILASKPLQLRQIESMFGGSQDFVTDDGLIIPTIPAYVRNKIEISADKAGLSLQRQIDILARGASDLAITLLGGARRLTPANNHQWPKIAIICDGGKNMRTINIGAATGRQLASHGLTVLLYVEQAKLLEQNSSSPEISLFKATDNVIVHSVDALPTPDLVILSTNTANLSDAIRKWLSVNRASVLAIDPPPCGINEVAIKYSILPILPLNGISTATTSSSSSAAATPTPIASTSAAASATKSAASTNNCGKLYLCNLGIPDKFYRDCGIKYKSPYGHKYVIPIHSKD	binds	–	–	–	–	–	–	–	–
